Drawing on article PMC9911399, “Two distinct binding modes provide the RNA-binding protein RbFox with extraordinary sequence specificity”, this text covers binding signal for 31 molecules.

T1: RBFOX1 RRM RbFoxmut (Fox-RRM*) (Homo sapiens, UniProt Q9NWB1 109-208, R118D;E147R;N151S;E152T)
T1 sequence: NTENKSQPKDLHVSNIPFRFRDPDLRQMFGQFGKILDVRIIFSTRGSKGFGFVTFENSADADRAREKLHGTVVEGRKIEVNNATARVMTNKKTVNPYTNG

B1: UGGCCUC (DNA:RNA)
RNA: GGGAGACCGGAAUUCAGAUUGUCCUGGCCUCUUAAAUCCCGUCGUAGCCACCA
DNA 1: CAATCTGAATTCCGGTCTCCC
DNA 2: TGGTGGCTACGACGGGATT
B2: AGCAGUG (DNA:RNA)
RNA: B1 RNA with U25A, G27C, C28A, C29G, C31G
DNA 1: CAATCTGAATTCCGGTCTCCC
DNA 2: TGGTGGCTACGACGGGATT
B3: GGGGAAU (DNA:RNA)
RNA: B1 RNA with U25G, C28G, C29A, U30A, C31U
DNA 1: CAATCTGAATTCCGGTCTCCC
DNA 2: TGGTGGCTACGACGGGATT
B4: GUAGCGU (DNA:RNA)
RNA: B1 RNA with U25G, G26U, G27A, C28G, U30G, C31U
DNA 1: CAATCTGAATTCCGGTCTCCC
DNA 2: TGGTGGCTACGACGGGATT
B5: AAGGCUU (DNA:RNA)
RNA: B1 RNA with U25A, G26A, C28G, C31U
DNA 1: CAATCTGAATTCCGGTCTCCC
DNA 2: TGGTGGCTACGACGGGATT
B6: UGGACCC (DNA:RNA)
RNA: B1 RNA with C28A, U30C
DNA 1: CAATCTGAATTCCGGTCTCCC
DNA 2: TGGTGGCTACGACGGGATT
B7: AUGUGUG (DNA:RNA)
RNA: B1 RNA with U25A, G26U, C28U, C29G, C31G
DNA 1: CAATCTGAATTCCGGTCTCCC
DNA 2: TGGTGGCTACGACGGGATT
B8: UUUAAUU (DNA:RNA)
RNA: B1 RNA with G26U, G27U, C28A, C29A, C31U
DNA 1: CAATCTGAATTCCGGTCTCCC
DNA 2: TGGTGGCTACGACGGGATT
B9: AAUCGCA (DNA:RNA)
RNA: B1 RNA with U25A, G26A, G27U, C29G, U30C, C31A
DNA 1: CAATCTGAATTCCGGTCTCCC
DNA 2: TGGTGGCTACGACGGGATT
B10: GAGUUAC (DNA:RNA)
RNA: B1 RNA with U25G, G26A, C28U, C29U, U30A
DNA 1: CAATCTGAATTCCGGTCTCCC
DNA 2: TGGTGGCTACGACGGGATT
B11: GACGGUU (DNA:RNA)
RNA: B1 RNA with U25G, G26A, G27C, C28G, C29G, C31U
DNA 1: CAATCTGAATTCCGGTCTCCC
DNA 2: TGGTGGCTACGACGGGATT
B12: CGAGAAG (DNA:RNA)
RNA: B1 RNA with U25C, G27A, C28G, C29A, U30A, C31G
DNA 1: CAATCTGAATTCCGGTCTCCC
DNA 2: TGGTGGCTACGACGGGATT
B13: CCUCCAA (DNA:RNA)
RNA: B1 RNA with U25C, G26C, G27U, U30A, C31A
DNA 1: CAATCTGAATTCCGGTCTCCC
DNA 2: TGGTGGCTACGACGGGATT
B14: AUAUCCC (DNA:RNA)
RNA: B1 RNA with U25A, G26U, G27A, C28U, U30C
DNA 1: CAATCTGAATTCCGGTCTCCC
DNA 2: TGGTGGCTACGACGGGATT
B15: UUACAAA (DNA:RNA)
RNA: B1 RNA with G26U, G27A, C29A, U30A, C31A
DNA 1: CAATCTGAATTCCGGTCTCCC
DNA 2: TGGTGGCTACGACGGGATT
B16: UCACUAC (DNA:RNA)
RNA: B1 RNA with G26C, G27A, C29U, U30A
DNA 1: CAATCTGAATTCCGGTCTCCC
DNA 2: TGGTGGCTACGACGGGATT
B17: CUAGUGC (DNA:RNA)
RNA: B1 RNA with U25C, G26U, G27A, C28G, C29U, U30G
DNA 1: CAATCTGAATTCCGGTCTCCC
DNA 2: TGGTGGCTACGACGGGATT
B18: GUAAACG (DNA:RNA)
RNA: GGGAGACCGGAAUUCAGAUUGUCCGUAAACGUUAAAUCCCGUCGUAGCCACCA
DNA 1: CAATCTGAATTCCGGTCTCCC
DNA 2: TGGTGGCTACGACGGGATT
B19: ACUUGGU (DNA:RNA)
RNA: GGGAGACCGGAAUUCAGAUUGUCCACUUGGUUUAAAUCCCGUCGUAGCCACCA
DNA 1: CAATCTGAATTCCGGTCTCCC
DNA 2: TGGTGGCTACGACGGGATT
B20: UGAUAUC (DNA:RNA)
RNA: B1 RNA with G27A, C28U, C29A
DNA 1: CAATCTGAATTCCGGTCTCCC
DNA 2: TGGTGGCTACGACGGGATT
B21: GCGUCGC (DNA:RNA)
RNA: B19 RNA with A25G, U27G, G29C, U31C
DNA 1: CAATCTGAATTCCGGTCTCCC
DNA 2: TGGTGGCTACGACGGGATT
B22: CCGUGUA (DNA:RNA)
RNA: B19 RNA with A25C, U27G, G30U, U31A
DNA 1: CAATCTGAATTCCGGTCTCCC
DNA 2: TGGTGGCTACGACGGGATT
B23: CGCUCAC (DNA:RNA)
RNA: B1 RNA with U25C, G27C, C28U, U30A
DNA 1: CAATCTGAATTCCGGTCTCCC
DNA 2: TGGTGGCTACGACGGGATT
B24: UUAGCAA (DNA:RNA)
RNA: B18 RNA with G25U, A28G, A29C, C30A, G31A
DNA 1: CAATCTGAATTCCGGTCTCCC
DNA 2: TGGTGGCTACGACGGGATT
B25: UUUUGAU (DNA:RNA)
RNA: B19 RNA with A25U, C26U, G30A
DNA 1: CAATCTGAATTCCGGTCTCCC
DNA 2: TGGTGGCTACGACGGGATT
B26: UGCAAGA (DNA:RNA)
RNA: B18 RNA with G25U, U26G, A27C, C30G, G31A
DNA 1: CAATCTGAATTCCGGTCTCCC
DNA 2: TGGTGGCTACGACGGGATT
B27: UGAGUUG (DNA:RNA)
RNA: B1 RNA with G27A, C28G, C29U, C31G
DNA 1: CAATCTGAATTCCGGTCTCCC
DNA 2: TGGTGGCTACGACGGGATT
B28: GCGGUCA (DNA:RNA)
RNA: B18 RNA with U26C, A27G, A28G, A29U, G31A
DNA 1: CAATCTGAATTCCGGTCTCCC
DNA 2: TGGTGGCTACGACGGGATT
B29: GACGUUA (DNA:RNA)
RNA: B18 RNA with U26A, A27C, A28G, A29U, C30U, G31A
DNA 1: CAATCTGAATTCCGGTCTCCC
DNA 2: TGGTGGCTACGACGGGATT
B30: UUUGGCC (DNA:RNA)
RNA: B19 RNA with A25U, C26U, U28G, G30C, U31C
DNA 1: CAATCTGAATTCCGGTCTCCC
DNA 2: TGGTGGCTACGACGGGATT
B31: CCUCUGU (DNA:RNA)
RNA: B19 RNA with A25C, U28C, G29U
DNA 1: CAATCTGAATTCCGGTCTCCC
DNA 2: TGGTGGCTACGACGGGATT

Where a chain is given by its changes, count along the chain named. This is one part of the list.

For this test, the target named is T1, RBFOX1 RRM RbFoxmut (Fox-RRM*). The experiment in a line: EMSA; HiTS-Eq, 1 nM pool, 10 min; buffer printed only for the single-RNA assays: 10 mM Tris pH 7.5, 150 mM NaCl, 3.4 mM EDTA, 0.001% NP-40, 30 C. To be noted: tags: His6 N-terminal (pET28a); label: 5' 32P. The gist of the method:
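A pool of RNA with 7 randomized nucleotides, 5′-radiolabelled and with DNA-annealed flanks, was equilibrated at 1 nM for 10 min in 50 µL with purified RbFox RRM, wild type or mutant, across increasing protein concentrations. Free RNA was separated by 8% native PAGE, excised, reverse-transcribed, barcoded by PCR and sequenced. Relative association constants were obtained from read-count changes of each RNA species versus the control reaction and normalised to the cognate motif.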
Regarding B1, the binding signal is 0.106 KA relative to UGCAUGU.

Take B2: the binding signal is 0.126 KA relative to UGCAUGU.

Take B3: the binding signal was 0.0935 KA relative to UGCAUGU.

Regarding B4, the binding signal was 0.143 KA relative to UGCAUGU.

For the molecule B5, the binding signal is 0.0703 KA relative to UGCAUGU.

Turning to B6, the binding signal was 0.0917 KA relative to UGCAUGU.

Take B7: the binding signal was 0.443 KA relative to UGCAUGU.

Regarding B8, the binding signal is 0.0813 KA relative to UGCAUGU.

Take B9: the binding signal was 0.0804 KA relative to UGCAUGU.

Take B10: the binding signal was 0.0884 KA relative to UGCAUGU.

Regarding B11, the binding signal is 0.094 KA relative to UGCAUGU.

In the case of B12, the binding signal is 0.101 KA relative to UGCAUGU.

Take B13: the binding signal is 0.0825 KA relative to UGCAUGU.

Consider B14, for which the binding signal is 0.0954 KA relative to UGCAUGU.

As for B15, the binding signal was 0.0742 KA relative to UGCAUGU.

Take B16: the binding signal is 0.0731 KA relative to UGCAUGU.

On to B17, for which the binding signal was 0.114 KA relative to UGCAUGU.

In the case of B18, the binding signal is 0.0957 KA relative to UGCAUGU.

For the molecule B19, the binding signal is 0.143 KA relative to UGCAUGU.

Turning to B20, the binding signal is 0.145 KA relative to UGCAUGU.

In the case of B21, the binding signal was 0.103 KA relative to UGCAUGU.

Turning to B22, the binding signal was 0.185 KA relative to UGCAUGU.

Take B23: the binding signal is 0.0623 KA relative to UGCAUGU.

Take B24: the binding signal was 0.0901 KA relative to UGCAUGU.

On to B25, for which the binding signal was 0.0872 KA relative to UGCAUGU.

For the molecule B26, the binding signal is 0.113 KA relative to UGCAUGU.

Consider B27, for which the binding signal was 0.141 KA relative to UGCAUGU.

B28: the binding signal is 0.118 KA relative to UGCAUGU.

In the case of B29, the binding signal was 0.124 KA relative to UGCAUGU.

In the case of B30, the binding signal is 0.282 KA relative to UGCAUGU.

Turning to B31, the binding signal is 0.108 KA relative to UGCAUGU.
